From the supplement of paper PMC4604168 (melanoma cell lines) come the findings set out here.

Each structure is given as a SMILES string. The list shows a part of the results. Most values come without repeats; read them as rough.
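Also: cells treated in 1,536-well plates, then fixed and DAPI-stained, with nuclei counted from automated high-throughput microscope images.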

One assay relates to UACC62. The assay can be described thus: cell count relative to DMSO control; melanoma cells; higher = more viable cells. As to conditions: library dose: standard library concentration; 72 h.
As to `O=c1[nH]nc(Sc2ncc([N+](=O)[O-])s2)n1-c1ccc2c(c1)OCCO2` + c1cc(-c2cnn3cc(-c4ccc(OCCN5CCCCC5)cc4)cnc23)ccn1 [Dorsomorphin] (first compound 1 µM, partner dose 2 µM), the cell count worked out at 62.1%.

Take `O=c1[nH]nc(Sc2ncc([N+](=O)[O-])s2)n1-c1ccc2c(c1)OCCO2` + COc1ccc2c(c1)CCC1C2CCC2(C)C(NCCCCCCN3C(=O)C=CC3=O)CCC12 [U73122] (first compound 1 µM, partner dose 2 µM): the cell count came out at 66.6%.

`C[C@@H]1CCN(C(=O)CC#N)C[C@@H]1N(C)c1ncnc2[nH]ccc12` + Oc1nc(-c2ccc(C(F)(F)F)cc2)nc2c1CSCC2 [XAV939] (first compound 5 µM, partner dose 10 µM) had a cell count of 83.9%.

The next assay concerns WM115. The assay is described as above. The note with it: library dose: standard library concentration; 72 h.
The molecule `O=c1[nH]nc(Sc2ncc([N+](=O)[O-])s2)n1-c1ccc2c(c1)OCCO2` + COc1cc(N2CCC(N3CCN(C)CC3)CC2)ccc1Nc1ncc(Cl)c(Nc2ccccc2S(=O)(=O)C(C)C)n1 [NVP-TAE684] (first compound 1 µM, partner dose 0.4 µM) registered a cell count of 92.5%.

`O=c1[nH]nc(Sc2ncc([N+](=O)[O-])s2)n1-c1ccc2c(c1)OCCO2` + N#Cc1c(O)c2c(-c3ccc(-c4ccccc4O)cc3)csc2[nH]c1=O [A769662] (first compound 1 µM, partner dose 10 µM) gave a cell count of 82.3%.

In turn, `O=c1[nH]nc(Sc2ncc([N+](=O)[O-])s2)n1-c1ccc2c(c1)OCCO2` + O=c1cc(-c2cccc3c2Sc2ccccc2S3)oc(N2CCOCC2)c1 [KU55933] (first compound 1 µM, partner dose 5 µM) displayed a cell count of 120%.

Molecule `O=C(Nc1cccc(Cl)c1)Nc1ncc(CCNc2ncnc3ccsc23)s1` + CC(C)CCN1c2nc(Nc3cc(F)c(O)c(F)c3)ncc2N(C)C(=O)C1C [BID1870] (first compound 0.004 µM, partner dose 1 µM) yielded a cell count of 30.4%.

With `Cn1cncc1[C@@](N)(c1ccc(Cl)cc1)c1ccc2c(c1)c(-c1cccc(Cl)c1)cc(=O)n2C` [tipifarnib] + COc1cc(N2CCC(N3CCN(C)CC3)CC2)ccc1Nc1ncc(Cl)c(Nc2ccccc2S(=O)(=O)C(C)C)n1 [NVP-TAE684] (first compound 0.05 µM, partner dose 0.4 µM), the cell count was determined as 45.6%.

Regarding `C[C@@H]1CCN(C(=O)CC#N)C[C@@H]1N(C)c1ncnc2[nH]ccc12` + CCCCCCCCCCCC1=C(O)C(=O)C=C(O)C1=O [Embelin] (first compound 5 µM, partner dose 6 µM), the cell count is 100%.

As for `C[C@@H]1CCN(C(=O)CC#N)C[C@@H]1N(C)c1ncnc2[nH]ccc12` + Cc1cc([N+](=O)[O-])ccc1NS(=O)(=O)c1cc(Cl)ccc1Cl [FH535] (first compound 5 µM, partner dose 5 µM), the cell count worked out at 103%.

`O=c1[nH]nc(Sc2ncc([N+](=O)[O-])s2)n1-c1ccc2c(c1)OCCO2` + COc1ccc(COc2ccc(Cc3cnc(N)nc3N)cc2OC)cc1 [GW2580] (first compound 1 µM, partner dose 5 µM): the cell count was found to be 111%.

Molecule `O=C(O)c1ccc(-c2c[nH]c3ncc(-c4ccccc4)cc23)cc1C1CCCC1` + Oc1cc(-c2nc(-c3ccccc3)[nH]c2-c2ccncc2)ccc1Cl [L779450] (first compound 0.8 µM, partner dose 1 µM) returned a cell count of 43.7%.

The molecule `CC1(C)NC(=O)N(c2ccc([N+](=O)[O-])c(C(F)(F)F)c2)C1=O` [nilutamide] + COc1ccc(-c2ccc3c(N4CCOCC4)nc(N4C[C@@H](C)O[C@@H](C)C4)nc3n2)cc1CO [KU0063794] (first compound 5 µM, partner dose 0.1 µM) registered a cell count of 81.7%.

With `O=c1[nH]nc(Sc2ncc([N+](=O)[O-])s2)n1-c1ccc2c(c1)OCCO2` + C[C@@H](Oc1cc(-c2cnn(C3CCNCC3)c2)cnc1N)c1c(Cl)ccc(F)c1Cl [Crizotinib] (first compound 1 µM, partner dose 1 µM), the cell count came out at 96%.

For the molecule `O=C(Nc1cccc(Cl)c1)Nc1ncc(CCNc2ncnc3ccsc23)s1` + Cc1cc([N+](=O)[O-])ccc1NS(=O)(=O)c1cc(Cl)ccc1Cl [FH535] (first compound 0.004 µM, partner dose 5 µM), the cell count was found to be 39%.

In turn, `O=c1[nH]nc(Sc2ncc([N+](=O)[O-])s2)n1-c1ccc2c(c1)OCCO2` + O=S(=O)(c1ccccc1)N(CC(F)(F)F)c1ccc(C(O)(C(F)(F)F)C(F)(F)F)cc1 [T0901317] (first compound 1 µM, partner dose 7 µM) displayed a cell count of 95.4%.

For `COc1cc(Nc2ncc(F)c(Nc3ccc4c(n3)NC(=O)C(C)(C)O4)n2)cc(OC)c1OC` [Tamatinib] + O=c1cc(-c2cccc3c2Sc2ccccc2S3)oc(N2CCOCC2)c1 [KU55933] (first compound 2 µM, partner dose 5 µM), the cell count came out at 77.2%.

`O=C(O)c1ccc(-c2c[nH]c3ncc(-c4ccccc4)cc23)cc1C1CCCC1` + O=C1NC(=O)/C(=C/c2ccc(-c3ccc(F)cc3O)o2)S1 [AS252424] (first compound 0.8 µM, partner dose 5 µM) yielded a cell count of 104%.

Turning to `O=c1[nH]nc(Sc2ncc([N+](=O)[O-])s2)n1-c1ccc2c(c1)OCCO2` + CCCCCCCCCCCC1=C(O)C(=O)C=C(O)C1=O [Embelin] (first compound 1 µM, partner dose 6 µM), the cell count was 100%.

Molecule `O=c1[nH]nc(Sc2ncc([N+](=O)[O-])s2)n1-c1ccc2c(c1)OCCO2` + Oc1cc(-c2nc(-c3ccccc3)[nH]c2-c2ccncc2)ccc1Cl [L779450] (first compound 1 µM, partner dose 1 µM) came in with a cell count of 52.2%.

In turn, `O=c1[nH]nc(Sc2ncc([N+](=O)[O-])s2)n1-c1ccc2c(c1)OCCO2` + Oc1nc(-c2ccc(C(F)(F)F)cc2)nc2c1CSCC2 [XAV939] (first compound 1 µM, partner dose 10 µM) had a cell count of 79.8%.

For `O=c1[nH]nc(Sc2ncc([N+](=O)[O-])s2)n1-c1ccc2c(c1)OCCO2` + COC(=O)c1sccc1S(=O)(=O)Nc1ccc(Nc2ccccc2)cc1OC [GSK0660] (first compound 1 µM, partner dose 5 µM), the cell count turned out to be 94.8%.

With `O=C(Nc1cccc(Cl)c1)Nc1ncc(CCNc2ncnc3ccsc23)s1` + COc1ccc2c(c1)CCC1C2CCC2(C)C(NCCCCCCN3C(=O)C=CC3=O)CCC12 [U73122] (first compound 0.004 µM, partner dose 2 µM), the cell count was found to be 41%.

For the molecule `COc1cc(Nc2ncc(F)c(Nc3ccc4c(n3)NC(=O)C(C)(C)O4)n2)cc(OC)c1OC` [Tamatinib] + Oc1cc(-c2nc(-c3ccccc3)[nH]c2-c2ccncc2)ccc1Cl [L779450] (first compound 2 µM, partner dose 1 µM), the cell count turned out to be 26.7%.

As for `O=c1[nH]nc(Sc2ncc([N+](=O)[O-])s2)n1-c1ccc2c(c1)OCCO2` + O=C(Nc1ccccc1)c1cc([N+](=O)[O-])ccc1Cl [GW9662] (first compound 1 µM, partner dose 10 µM), the cell count is 53%.

Regarding `COc1cc(Nc2ncc(F)c(Nc3ccc4c(n3)NC(=O)C(C)(C)O4)n2)cc(OC)c1OC` [Tamatinib] + COc1cc2ncnc(Nc3ccc(Oc4ccccc4)cc3)c2cc1OC [SrcI1] (first compound 2 µM, partner dose 10 µM), the cell count was 73.3%.

As for `O=c1[nH]nc(Sc2ncc([N+](=O)[O-])s2)n1-c1ccc2c(c1)OCCO2` + CC(C)CCN1c2nc(Nc3cc(F)c(O)c(F)c3)ncc2N(C)C(=O)C1C [BID1870] (first compound 1 µM, partner dose 1 µM), the cell count is 92.5%.

In the case of `O=C(O)c1ccc(-c2c[nH]c3ncc(-c4ccccc4)cc23)cc1C1CCCC1` + COC(=O)c1sccc1S(=O)(=O)Nc1ccc(Nc2ccccc2)cc1OC [GSK0660] (first compound 0.8 µM, partner dose 5 µM), the cell count was found to be 93.3%.

Molecule `O=c1[nH]nc(Sc2ncc([N+](=O)[O-])s2)n1-c1ccc2c(c1)OCCO2` + Cn1cc(/C=C2\C(=O)Nc3cccnc32)c2ccccc21 [GW441756] (first compound 1 µM, partner dose 2 µM) came in with a cell count of 117%.

`O=c1[nH]nc(Sc2ncc([N+](=O)[O-])s2)n1-c1ccc2c(c1)OCCO2` + COc1ccc(-c2ccc3c(N4CCOCC4)nc(N4C[C@@H](C)O[C@@H](C)C4)nc3n2)cc1CO [KU0063794] (first compound 1 µM, partner dose 0.1 µM) registered a cell count of 90.5%.

`Cn1cncc1[C@@](N)(c1ccc(Cl)cc1)c1ccc2c(c1)c(-c1cccc(Cl)c1)cc(=O)n2C` [tipifarnib] + COc1ccc2c(c1)CCC1C2CCC2(C)C(NCCCCCCN3C(=O)C=CC3=O)CCC12 [U73122] (first compound 0.05 µM, partner dose 2 µM): the cell count came to 73.9%.

Take `O=c1[nH]nc(Sc2ncc([N+](=O)[O-])s2)n1-c1ccc2c(c1)OCCO2` + CCN(CC)CCCCNc1ncc2cc(-c3cc(OC)cc(OC)c3)c(NC(=O)NC(C)(C)C)nc2n1 [PD173074] (first compound 1 µM, partner dose 0.5 µM): the cell count was 94.4%.

`O=c1[nH]nc(Sc2ncc([N+](=O)[O-])s2)n1-c1ccc2c(c1)OCCO2` + COc1cc2ncnc(Nc3ccc(Oc4ccccc4)cc3)c2cc1OC [SrcI1] (first compound 1 µM, partner dose 10 µM) had a cell count of 59.3%.
